Results as given in the supplement of paper PMC11417369.
± gives the standard deviation of the averaged measurements. This is one part of the list.

system: PfAP2-EXP AP2 domain (GST-tagged); assay: gcPBM binding intensity (ln(normalized median fluorescence intensity)); higher = stronger DNA binding
Outline: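 Using an Agilent 4 × 180k array, primer-extended double-stranded 36-bp intergenic genomic probes and negative controls were exposed for 1 h to GST-fused P. falciparum DNA-binding domains expressed in E. coli. Binding was carried out in 1× PBS with 1% milk, 0.2 mg/ml BSA, 0.5% salmon testes DNA and 0.03% Triton X-100, and protein was detected with Alexa488 anti-GST antibody and a 488 nm scan. Binding intensity is the highest Masliner-normalised natural-log median intensity across replicate spots of either probe orientation.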

Row | Sequence | gcPBM binding intensity (ln)
1 | CAATATTATTATATTTGTACACATGCGTATTTTTTA [XGTACX_site4154] | 8.51 ± 0.43
2 | ATATAAATATAAACATGTACATATATATATATATAT [XGTACX_site2824] | 10.3 ± 0.79
3 | GAAACGTTTTTGAGTAGTACACACACAATAAGGATG [XGTACX_site6809] | 9.02 ± 0.45
4 | ACGTTTTATTTTTATTGTACTCACATTGAAATGAAT [XGTACX_site6094] | 9.1 ± 0.39
5 | ATTTTTTTATAAAATTTTTTATATATTAAATATTAT [CACACA_negctrl_site135] | 8.16 ± 0.47
6 | TTTGTAATAACATATGCATGTTCAAAAAATAAAATA [TGCATGCA_site817] | 8.4 ± 0.36
7 | AAAATTGTGCTTTCACGGACACAAGATCGAAATAGA [XGTACX_site4068] | 8.74 ± 0.36
8 | ATATATTTATACATTTGTACATATACATATTTCTGA [XGTACX_site3982] | 8.6 ± 0.35
9 | ATTTTTTTTGTAAAAGTGCATATATATATATATATA | 10.4 ± 0.35
10 | AAATTTATATAAAACAGTACAATTAAAAAAAAAATA [XGTACX_site8015] | 8.54 ± 0.49
11 | CTTATACTTCTACATCGTACAAAAGATGGTATAATT [XGTACX_site2698] | 8.52 ± 0.38
12 | AAATTATAAGTAAAAAGTACTTAATATATAATAAAC [XGTACX_site6065] | 8.77 ± 0.31
13 | AAAAAAAAAAAAAATAGTACGTAACTATAATTTCCT [XGTACX_site2457] | 8.31 ± 0.2
14 | TATAATTTTTTTTGGGTGCTTGGGTAAATTTTATTA | 8.92 ± 0.67
15 | TAACTTAAATAATACATACACACATGTACATACAGA [CACACA_site1594] | 8.53 ± 0.3
16 | AATTATATATTATCATGTACAAATATAGTAATACAA [XGTACX_site6845] | 8.47 ± 0.4
17 | ATACGTATATAATATACATGCATATATAGCACATAC [TGCATGCA_site376] | 8.905 ± 0.064
18 | ATAAAAAAAAAAAAAAATGAAGCATCACCGTGTAAT [XGTACX_negctrl_site288] | 8.53 ± 0.54
19 | CACGAAAAAAAAAAATGTACATAAAAATATGATACA [XGTACX_site2536] | 8.47 ± 0.37

Row | Sequence | gcPBM binding intensity (ln)
20 | GAAAGAGAAATATATACACACATATTTATATTTTTA [CACACA_site2066] | 8.09 ± 0.33
21 | AAAAAAAAAAAAAAAAAAAAAGGACGGATGGATGGA [GTGCAC_negctrl_site527] | 9.14 ± 0.18
22 | TCTCATTTCAACAACAGTACATATCTATCTGTGTAT [XGTACX_site6897] | 8.52 ± 0.3
23 | CCTAATTTTTTTAGTTGTACTTTTTTTTTTTTTTAT [XGTACX_site7948] | 8.47 ± 0.35
24 | GCCTATATGTTTAGTTGTACTCCTAATATTATTTGT [XGTACX_site6060] | 8.96 ± 0.22
25 | CAAATTATTTCGAGGTGTACTTTTTTATATTATATT [XGTACX_site8309] | 8.68 ± 0.39
26 | TATATAAATGGACACACACACACCTTATAATTATTA [CACACA_site6093] | 8.73 ± 0.53
27 | AATGTGTTCATATATGCACACGCATATATATTATTG [CACACA_site9274] | 8.57 ± 0.27
28 | TTTATAAATTGACACACACACATGTGAACATAAAAA [CACACA_site6978] | 8.68 ± 0.42
29 | TTTTTTTTTTTTTAAATAATCATACATGTGAAATTG [GTGCAC_negctrl_site328] | 8.15 ± 0.49
30 | ATCATTTATTTTTTAAAAGTATATATATATATATAT [CACACA_negctrl_site220] | 10.1 ± 0.37
31 | TTAATAAAAATATATCCACACACATATATATATATG [CACACA_site8091] | 8.45 ± 0.33
32 | TTTTGACATTAACTTAAAAAATAAATAATTATAAAA [XGTACX_negctrl_site552] | 8.14 ± 0.44
33 | AAATATAAGTTTTATTGTACATTATATAGCATATTT [XGTACX_site6618] | 8.29 ± 0.37
34 | ACATATTATAACATATGTACATATATATATATATAA [XGTACX_site5567] | 8.57 ± 0.2
35 | TATCATATAAAACATGCACACATATGTACTCTTATA [CACACA_site9249] | 8.77 ± 0.31
36 | CGTTCTATTTAGATATGTACTTAAATATATGATCAT [XGTACX_site2936] | 8.31 ± 0.35
37 | AAAAAATAAGATTGTACACACATAAATTCTTTGTCA [CACACA_site2089] | 8.49 ± 0.45
38 | TTATAAAACACAAAATGTACAAAAAATTATAATTAA [XGTACX_site6859] | 8.68 ± 0.38

Row | Sequence | gcPBM binding intensity (ln)
39 | TTAAAGAATATTTTCACACATAAAAATTTTAATTTA [CACACA_site4290] | 7.86 ± 0.33
40 | AATATTATTATCTTACCACACACAATCTACGAAAAG [CACACA_site8006] | 8.54 ± 0.57
41 | TATGTCTTGTTGTAAAATATTTATTAACAAATTGGC [CACACA_negctrl_site1452] | 8.43 ± 0.59
42 | TATATATATATAAGTGCACACTGAACCAAGAAAATT [CACACA_site5637] | 9.87 ± 0.2
43 | ATTTTTATTTTCTTTACACACCACATAACTTTTTTT [CACACA_site7826] | 9.02 ± 0.51
44 | ACTTTTTAATATTTTAGTACACAGTAATTCTTACTA [XGTACX_site1425] | 8.77 ± 0.16
45 | ATATATATATATATATGTACATATATCTACATATAT [XGTACX_site7588] | 10.2 ± 0.14
46 | TTTAATATGAATTTATGTACATATATATATATATAT [XGTACX_site6337] | 10.2 ± 0.35
47 | TATATTAAAAAAAAATGTACATATATATAATATATA [XGTACX_site1935] | 8.54 ± 0.27
48 | ATTTTAATACTTTTATATTAAATGTAGCACATCATA [XGTACX_negctrl_site273] | 8.45 ± 0.59
49 | AAAGTAAAAAAAAAAACATGCATACGCTAATTTTTA [TGCATGCA_site301] | 8.06 ± 0.42
50 | GATATGTTAAATATATGTACATATATAAACCCAAAC [XGTACX_site6601] | 8.9 ± 0.38
51 | AAAAAGTGATTAAAATGTACAAAATGCATAAAAGAA [XGTACX_site6625] | 9.39 ± 0.41
52 | TTATTTATTTAGTAGTGTACTTTTTATATTTATAAT [XGTACX_site5978] | 8.52 ± 0.38
53 | CATTTTTTGCTTTCAACACACATACAATATAAATAA [CACACA_site7858] | 8.65 ± 0.2
54 | AAAAAAAAAAAATACACACACATATATATATATATA [CACACA_site2224] | 10.2 ± 0.23
55 | TATGTAATAAATAGTACACACACACCGATATATATA [CACACA_site8389] | 8.91 ± 0.43
56 | TATAATAATATTATAGTGCATATTATTTATATATAA [GTGCAC_site9820] | 8.22 ± 0.2
57 | TTTCTTTCTTCACATATATATATATATATATTTATA [TGCATGCA_negctrl_site341] | 8.83 ± 0.3
